Results reported in the supplement of paper PMC8728848.
The other results are listed elsewhere or left out.

Legend:
Assay in all cases: glycan array binding signal (z-score within array); higher = stronger binding
Settings in all cases: glycan notation: IUPAC condensed, linker removed
[1] = molecular target: Man(a1-2)Man(a1-3)[Man(a1-2)Man(a1-6)]Man
Summary of the method: (§1)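 The Consortium for Functional Glycomics database supplied 3228 glycan arrays, of which those lacking an available protein sequence were dropped. The binding signal, a within-array Z-score, was averaged across arrays of the same protein sequence and across linkers. Negative scores can be read as non-binding.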

[2] = molecular target: Man(a1-2)Man(a1-3)[Man(a1-2)Man(a1-6)]Man(a1-6)[Man(a1-2)Man(a1-2)Man(a1-3)]Man
Summary of the method: as §1

[3] = molecular target: Man(a1-2)Man(a1-3)[Man(a1-2)Man(a1-6)]Man(a1-6)[Man(a1-2)Man(a1-2)Man(a1-3)]Man(b1-4)GlcNAc(b1-4)GlcNAc
Summary of the method: as §1

[4] = molecular target: Man(a1-2)Man(a1-3)[Man(a1-6)]Man(a1-6)[Man(a1-2)Man(a1-3)]Man(b1-4)GlcNAc(b1-4)GlcNAc
Summary of the method: as §1

[5] = molecular target: Man(a1-2)Man(a1-6)[Man(a1-3)]Man(a1-6)[Man(a1-2)Man(a1-2)Man(a1-3)]Man
Summary of the method: as §1

[6] = molecular target: Man(a1-2)Man(a1-6)[Man(a1-3)]Man(a1-6)[Man(a1-2)Man(a1-2)Man(a1-3)]Man(b1-4)GlcNAc(b1-4)GlcNAc
Summary of the method: as §1

Man(a1-3)[Man(a1-6)]Man = molecular target: Man(a1-3)[Man(a1-6)]Man
Summary of the method: as §1

[7] = molecular target: Man(a1-3)[Man(a1-6)]Man(a1-6)[Man(a1-2)Man(a1-3)]Man(b1-4)GlcNAc(b1-4)GlcNAc
Summary of the method: as §1

[8] = molecular target: Man(a1-3)[Man(a1-6)]Man(a1-6)[Man(a1-3)]Man
Summary of the method: as §1

[9] = molecular target: Man(a1-3)[Man(a1-6)]Man(a1-6)[Man(a1-3)]Man(b1-4)GlcNAc(b1-4)GlcNAc
Summary of the method: as §1

[10] = molecular target: Man(a1-3)[Man(a1-6)]Man(b1-4)GlcNAc(b1-4)GlcNAc
Summary of the method: as §1

[11] = molecular target: Man(a1-3)[Man(a1-6)]Man(b1-4)GlcNAc(b1-4)[Fuc(a1-6)]GlcNAc
Summary of the method: as §1

Man(a1-6)Man = molecular target: Man(a1-6)Man
Summary of the method: as §1

Man(b1-4)GlcNAc = molecular target: Man(b1-4)GlcNAc
Summary of the method: as §1

MurNAc(b1-4)GlcNAc = molecular target: MurNAc(b1-4)GlcNAc
Summary of the method: as §1

Neu5Ac(a2-3)Gal = molecular target: Neu5Ac(a2-3)Gal
Summary of the method: as §1

[12] = molecular target: Neu5Ac(a2-3)Gal(b1-3)GalNAc
Summary of the method: as §1

[13] = molecular target: Neu5Ac(a2-3)Gal(b1-3)GalNAc(b1-3)Gal(a1-4)Gal(b1-4)Glc
Summary of the method: as §1

[14] = molecular target: Neu5Ac(a2-3)Gal(b1-3)GalNAc(b1-4)Gal(b1-4)Glc
Summary of the method: as §1

[15] = molecular target: Neu5Ac(a2-3)Gal(b1-3)GalNAc(b1-4)[Neu5Ac(a2-3)]Gal(b1-4)Glc
Summary of the method: as §1

[16] = molecular target: Neu5Ac(a2-3)Gal(b1-3)GalNAc(b1-4)[Neu5Ac(a2-8)Neu5Ac(a2-3)]Gal(b1-4)Glc
Summary of the method: as §1

[17] = molecular target: Neu5Ac(a2-3)Gal(b1-3)GalNAc6S
Summary of the method: as §1

[18] = molecular target: Neu5Ac(a2-3)Gal(b1-3)GlcNAc
Summary of the method: as §1

[19] = molecular target: Neu5Ac(a2-3)Gal(b1-3)GlcNAc(b1-2)Man
Summary of the method: as §1

[20] = molecular target: Neu5Ac(a2-3)Gal(b1-3)GlcNAc(b1-2)Man(a1-3)[GlcNAc(b1-4)][Neu5Ac(a2-3)Gal(b1-3)GlcNAc(b1-2)Man(a1-6)]Man(b1-4)GlcNAc(b1-4)GlcNAc
Summary of the method: as §1

[21] = molecular target: Neu5Ac(a2-3)Gal(b1-3)GlcNAc(b1-2)Man(a1-3)[Neu5Ac(a2-3)Gal(b1-3)GlcNAc(b1-2)Man(a1-6)]Man(b1-4)GlcNAc(b1-4)GlcNAc
Summary of the method: as §1

[22] = molecular target: Neu5Ac(a2-3)Gal(b1-3)GlcNAc(b1-2)[Neu5Ac(a2-3)Gal(b1-3)GlcNAc(b1-4)]Man(a1-6)[Neu5Ac(a2-3)Gal(b1-3)GlcNAc(b1-2)Man(a1-3)]Man(b1-4)GlcNAc(b1-4)GlcNAc
Summary of the method: as §1

[23] = molecular target: Neu5Ac(a2-3)Gal(b1-3)GlcNAc(b1-3)Gal(b1-3)GlcNAc
Summary of the method: as §1

[24] = molecular target: Neu5Ac(a2-3)Gal(b1-3)GlcNAc(b1-3)Gal(b1-4)GlcNAc
Summary of the method: as §1

[25] = molecular target: Neu5Ac(a2-3)Gal(b1-3)GlcNAc(b1-3)GalNAc
Summary of the method: as §1

B1: a L Fucosidase (Streptosporangium roseum), D2B1P1_STRRD (protein)
chain: MRRKLLLVPAVGLLVIGSIFATQPVASADTPPVYEPTVESLNSHPVPQWFNDDKFGIFIHWGAYSVPAWGPRGSYAEWYGNYMNAGGSATNAHHKATYGQDFNYDAFLQQWKAEKFDPADWVKLFKDAGAKYFVLTSKHHEGMALWDSKSSGRDSVDLGPGRDLAKELFDAARKDEAKLKAGFYYSLYEWYNPAYTGRPATNPYTGAEIPYTGAPGGGDYVKDYMLPQMRELIDGYDPDIIWCDGQWEKPASYWNTAGVIADYYNKALNSGKEVAVANRCKIQSGNLDSPELDFQTPEYTVKPDIDPVKWESSRGIAHSYGYNQNEPEEDHLTSDQLVDSLVDIVSKNGNLLLDIGPKADGTIPEIQRQRLLDIGAWLKANGEAIYGTTYWNRAEEKGGPDDVRYTAKDATLYATALKWPGEQLTLGADLPVDHSTRITMLGSGARLSWSRDEQGRVVVNTPQEAGKHAYVFKIETPGVRSLLRTSSSLAKEIAPGRTISGELTVTNPGKRHTPATKLSLTVPQGWTATLGAPRVRPLGPGESVKVPISVSAPEGVAPAPYTLGLYQRTGRMGTTTALPLTVNRPNLSLGKPATQKSTGYDAPASRAVDGNTGGDWSAGSTTHTAEPEKQAWWQVDLGASARLDSVDVWNRLDCCADRLKDFWVMASDQPFTTDDLDQARTAPGVTAVHVGEQAGSPSKVKLPEGTRGRYVRIQLASPSNPLSLAEVQVRGSMARPNLSLGKPATQKSTGYDAPASRAVDGNTGGDWSAGSTTHTAEPEKQAWWQVDLGASARLDSVDVWNRLDCCADRLKDFWVMASDQPFTTDDLDQARTAPGVTAVHVGEQAGSPSKVKLPEGTRGRYVRIQLASPSNPLSLAEVQVRLEHHHHHHS
[1]
  glycan array binding signal (z-score): -0.55
[2]
  glycan array binding signal (z-score): -0.342
[3]
  glycan array binding signal (z-score): -0.104
[4]
  glycan array binding signal (z-score): -0.352
[5]
  glycan array binding signal (z-score): -0.393
[6]
  glycan array binding signal (z-score): 0.248
Man(a1-3)[Man(a1-6)]Man
  glycan array binding signal (z-score): 0.008
[7]
  glycan array binding signal (z-score): 0.102
[8]
  glycan array binding signal (z-score): -0.243
[9]
  glycan array binding signal (z-score): -0.305
[10]
  glycan array binding signal (z-score): -0.26
[11]
  glycan array binding signal (z-score): 0.748
Man(a1-6)Man
  glycan array binding signal (z-score): -0.483
Man(b1-4)GlcNAc
  glycan array binding signal (z-score): -0.494
MurNAc(b1-4)GlcNAc
  glycan array binding signal (z-score): -0.473
Neu5Ac(a2-3)Gal
  glycan array binding signal (z-score): -0.303
[12]
  glycan array binding signal (z-score): -0.426
[13]
  glycan array binding signal (z-score): -0.194
[14]
  glycan array binding signal (z-score): 0.087
[15]
  glycan array binding signal (z-score): 0.247
[16]
  glycan array binding signal (z-score): -0.156
[17]
  glycan array binding signal (z-score): -0.306
[18]
  glycan array binding signal (z-score): -0.534
[19]
  glycan array binding signal (z-score): -0.44
[20]
  glycan array binding signal (z-score): 0.33
[21]
  glycan array binding signal (z-score): 0.218
[22]
  glycan array binding signal (z-score): 0.503
[23]
  glycan array binding signal (z-score): -0.407
[24]
  glycan array binding signal (z-score): -0.482
[25]
  glycan array binding signal (z-score): 0.2
